Measurements as given in PubChem BioAssay AID686979 (National Center for Advancing Translational Sciences (NCATS), 2013).
Hit rate of the full screen: of about 420,000 compounds, about 50,000 (12%) were called active. Inconclusive means that the source gave no clear call. Such entries were picked first, then a sample of the others. Calls come from the whole dose curve; as a rule, active = well fitted inhibition curve with a large enough effect; inconclusive = small, poorly fitted or top-dose-only effect; inactive = flat fitted curve, though single readings scatter. No potency is given beside an inconclusive call; the fits are too rough.

Assay: qHTS for Inhibitors of human tyrosyl-DNA phosphodiesterase 1 (TDP1): qHTS in cells in presence of CPT; note: nearly all actives have a fitted effect of over 55% in size
Conditions: chicken DT40 Tdp1-/-;hTDP1 cells + 20 nM CPT, ATP luminescence, 48 h; activity change, negative = growth inhibition: at 46.2 µM (top of the series) unless noted
Outline: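 Chicken DT40 Tdp1-/- cells stably complemented with human TDP1 were seeded at 400 cells/well in medium containing 20 nM camptothecin, exposed to pin-transferred compounds, and grown at 37 °C for at least 48 hr. Viability was read as ATP luminescence.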
% is set by controls: 0 for no effect and ±100 for the full control effect; potency is the fitted concentration of half-maximal effect; tags give direction and shape of the fitted curve.

SMILES	Potency	activity change, negative = growth inhibition
CN(C)c1ccc(/C=C(/C#N)C(=O)Nc2nc3c(s2)CCN(Cc2ccccc2)C3)cc1	inconclusive [inhibitor, full curve, poor fit]	–
COc1ccc(NC(=O)N2CCC(n3c(C)nc4cccnc43)CC2)cc1OC	–	inactive: -7.88%
CC1=NN(c2ccccc2)C(=O)C1N=Nc1ccc(N)cc1 (stereo not given)	active: 14.6 µM	–
CCNC(=S)Nc1ccc2c(c1)c(=O)n(C)n2-c1ccc(C(C)(C)C)cc1	active: 25.9 µM	–
Cc1ccc(OCCSc2nc3ccc(NC(=O)COc4ccc(C)cc4)cc3s2)cc1	inconclusive [inhibitor, partial curve]	–
CCOC(=O)c1cnn(-c2cccc(Cl)c2)c1C1CCN(C(=O)OC(C)(C)C)CC1	active: 23.1 µM	–
CSc1nc2sc3c(c2c(=O)n1-c1ccc(C)cc1)CCCC3	inconclusive [inhibitor, single point]	–
CC1CCN(C(=O)c2ccc(CSc3nc4ccncc4n3Cc3ccc(F)cc3)cc2)CC1	active: 23.1 µM	–
Cc1ccc(C(=O)NC(=S)Nc2ccc3[nH]c(=O)[nH]c3c2)c(C)c1	–	inactive: -0.979%
COc1ccc(Cl)cc1NC(=O)N1CCC2(CC1)Oc1ccccc1C(=O)N2Cc1ccc(F)cc1	inconclusive [inhibitor, single point]	–
CN1CCN(S(=O)(=O)c2cccc(S(=O)(=O)c3ccc(Cl)cc3)c2)CC1	inconclusive [inhibitor, single point]	–
COc1ccc(NC(=O)CCc2nnc3ccc(N4CCN(c5cccc(OC)c5)CC4)nn23)cc1	inconclusive [inhibitor, single point]	–
CCCCCC(C)n1[nH]c(=O)cc1N (stereo not given)	–	inactive: -0.904%
O=C(CCc1ccc(S(=O)(=O)N2CCOCC2)cc1)Nc1ccccc1F	–	inactive: -5.49%
CCOc1ccc(-c2nnn(CC(=O)NCc3ccccc3)n2)cc1	inconclusive [inhibitor, single point]	–
Cc1cc(C)cc(-c2nnc(SCC(=O)NC3CC3)o2)c1	–	inactive: -10.3%
COc1ccc([N+](=O)[O-])cc1N(CC(=O)Nc1ccccc1C(=O)N1CCOCC1)S(C)(=O)=O	–	inactive: 9.2%
CN(Cc1cc(Cl)cc(Cl)c1)[C@H]1C[C@H]2c3[nH]c4ccccc4c3CCN2C(=O)[C@H]1CO	inconclusive [inhibitor, single point]	–
Cc1nc(Sc2nnnn2C)c2c3c(sc2n1)CCC3	active: 2.06 µM	–
CCOC(=O)N1CCC(N(CCCOC)C(=O)Nc2cccc(OC)c2)CC1	inconclusive [inhibitor, single point]	–
CC1CCc2c(sc3nnn(CC(=O)Nc4ccccc4Cl)c(=O)c23)C1 (stereo not given)	inconclusive [inhibitor, single point]	–
Fc1ccc(NCc2nc3ccccc3n2CCOc2ccccc2Cl)cc1	inconclusive [inhibitor, single point]	–
O=C1NCN(c2ccccc2)C12CCN(c1nnnn1-c1ccccc1)CC2	inconclusive [inhibitor, single point]	–

SMILES	Potency	activity change, negative = growth inhibition
CCN(CC)C(=O)C1=C(C)N(Cc2ccc(OC)cc2)C(=O)C(CC(=O)NCc2cccc3ccccc23)C1 (stereo not given)	inconclusive [inhibitor, single point]	–
N=c1sccn1CC(=O)Nc1cc(Cl)ccc1[N+](=O)[O-]	–	inactive: 5.25%
CCOc1ccc(-c2c(C)nn3c(C)c(C(=O)NC(C)c4ccccc4)cnc23)cc1OCC (stereo not given)	active: 20.6 µM	–
CN1CCN(Cc2c(O)ccc3occ(C(=O)c4ccccc4)c23)CC1	inconclusive [inhibitor, single point]	–
CCCn1cc(S(=O)(=O)c2ccc(OCC)cc2)c(=O)c2cc(C)ccc21	inconclusive [inhibitor, single point]	–
COc1ccc(CC(=O)Nc2cc3oc4ccccc4c3cc2OC)cc1	inconclusive [inhibitor, single point]	–
CCCN1C(C)C(C(=O)OCC)=CN(Cc2ccc(Br)cc2)S1(=O)=O (stereo not given)	inconclusive [inhibitor, single point]	–
CC(O)(c1ccc(F)c(F)c1)c1nc(-c2ccncc2)cs1 (stereo not given)	active: 20.6 µM	–
O=C(CC(=O)N/N=C/c1ccccc1O)NCc1cccnc1	inconclusive [inhibitor, single point]	–
CCN(C(=O)COC(=O)c1ccc2[nH]c(C)c(C)c2c1)c1c(N)n(Cc2ccccc2)c(=O)[nH]c1=O	active: 18.4 µM	–
Cc1cccc(N=C2NN=C(c3c(C)[nH]c4ccccc34)CS2)c1	inconclusive [inhibitor, single point]	–
O=C(NCc1ccccc1)c1n[nH]nc1-c1ccccc1O	–	inactive: -14.6%
Cn1c(N)c(S(=O)(=O)N2CCN(c3ccccc3F)CC2)c(=O)n(C)c1=O	–	inactive: -16.6%
COc1ccc(C2CC(c3ccccc3)=NN2C(=O)COC(=O)CNC(=O)c2ccccc2)cc1 (stereo not given)	inconclusive [inhibitor, single point]	–
Cc1c(-c2cccc(NC(=O)Cc3ccccc3)c2)nc2ncccn12	inconclusive [inhibitor, single point]	–
COC(=O)[C@@]1(Cc2ccccc2)[C@H]2C(=O)N(C)C(=O)[C@H]2[C@H]2CN=C(SCC3CC3)N21	active: 3.66 µM	–
COc1ccc(CNc2nc(-c3ccccc3)nn2C(=O)c2ccccc2OC)cc1	inconclusive [inhibitor, single point]	–
COc1ccc(/C=N/n2cnnc2SCc2ccccc2)cc1	inconclusive [inhibitor, single point]	–
Cn1c(=O)c2c(nc(OCc3cccnc3)n2Cc2ccccc2)n(C)c1=O	active: 11.6 µM	–
CCOC(=O)c1sc2nc(C)c([N+](=O)[O-])c(COC)c2c1N	–	inactive: -13.5%
O=C(NCCOc1ccccc1F)C1CCC(=O)N(CCc2cccc(F)c2)C1 (stereo not given)	inconclusive [inhibitor, single point]	–
COc1ccc(CNC(=O)c2cc(-c3cc(C)ccc3O)n[nH]2)cc1	inconclusive [inhibitor, partial curve]	–
